The supplement of paper PMC12217912
This is one part of the list. Sequences were assembled here from the parent chain. Inactive controls read about 0.05.

B1: TEV protease; numbered along this chain (parent)
chain: MGESLFKGPRDYNPISSSICHLTNESDGHTTSLYGIGFGPFIITNKHLFRRNNGTLVVQSLHGVFKVKDTTTLQQHLVDGRDMIIIRMPKDFPPFPQKLKFREPQREERICLVTTNFQTKSMSSMVSDTSCTFPSGDGIFWKHWIQTKDGQCGSPLVSTRDGFIVGIHSASNFTNTNNYFTSVPKNFMELLTNQEAQQWVSGWRLNADSVLWGGHKVFMVKPEEPFQPVKEATQL

Variants of: B1
Assay: raw area under fraction-flipped curve 0-4 h after induction (AUC4h, not background-subtracted), DNA-recorder readout of cleavage of the substrate (dimensionless); higher = more cleavage of the substrate by the protease variant
Details: temperature: 34 °C; time window: 0-4 h after rhamnose induction
Experimental: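 In vivo DNA recorder in E. coli TOP10(DE3) ΔrhaA at 34 °C. Each TEVp single-site mutant (parent TEVp 0) is paired with a single-site variant of the 7-mer TEVs (canonical ENLYFQ|S). The substrate sits between flexible linkers in a Bxb1-sfGFP-TEVs-SsrA fusion, so cleavage stabilises Bxb1 and speeds flipping of a recombination array, read by NGS. The value is the raw area under the fraction-flipped curve over 0-4 h after rhamnose induction (AUC4h), with ≥20 reads per time point. It is not background-subtracted; inactive controls average about 0.047.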
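Also: Bxb1 expression induced with 0.2% (w/v) L-rhamnose at OD600 near 0.5, cultures sampled hourly, flipped fraction per protease–substrate barcode pair counted by paired-end Illumina sequencing.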

Row | Variant | area with substrate ENLYCQS | area with substrate ENLYEQS | area with substrate ENLYGQS | area with substrate ENLYHQS | area with substrate ENLYIQS | area with substrate ENLYKQS | area with substrate ENLYLQS | area with substrate ENLYNQS | area with substrate ENLYQQS | area with substrate ENLYVQS | area with substrate ENLYWQS | area with substrate ENLYYQS | area with substrate ENLYDQS | area with substrate ENLYMQS | area with substrate ENLYPQS | area with substrate ENLYRQS | area with substrate ENLYSQS | area with substrate ENLYTQS
1 | V64I | 0.0826 | 0.0683 | 0.0724 | 0.0422 | 0.116 | 0.0598 | 0.0769 | 0.0713 | 0.0426 | 0.124 | 0.0767 | 0.0507 | – | – | – | – | – | –
2 | N13C | 0.122 | 0.0654 | 0.0668 | 0.0683 | 0.128 | 0.0814 | – | 0.064 | 0.0611 | 0.096 | – | 0.0762 | 0.0677 | 0.0864 | 0.0654 | 0.0681 | 0.0657 | 0.077
3 | G214S | 0.077 | 0.072 | – | – | 0.0795 | 0.0702 | – | – | 0.0539 | – | 0.0687 | – | 0.0591 | – | – | – | – | 0.0836
4 | F133G | 0.0591 | 0.0701 | – | 0.0692 | 0.133 | 0.0594 | 0.0439 | 0.0637 | 0.0785 | 0.134 | 0.0842 | – | 0.0656 | 0.0875 | – | 0.0419 | 0.0743 | 0.0377
5 | N45Y | 0.0582 | 0.0612 | 0.0629 | 0.0526 | 0.0616 | 0.0151 | – | 0.0489 | 0.0639 | 0.0561 | 0.034 | 0.0667 | 0.0548 | 0.0587 | 0.0619 | 0.0634 | 0.0581 | –
6 | A207C | – | – | 0.0544 | 0.0832 | 0.117 | – | – | 0.103 | 0.058 | – | – | 0.0543 | 0.0601 | 0.0858 | 0.0648 | – | 0.0795 | 0.0807
7 | K120V | 0.0709 | – | – | 0.0583 | 0.118 | – | – | 0.0364 | – | – | – | – | 0.0482 | – | 0.0822 | – | 0.0746 | –
8 | P104R | 0.0578 | – | 0.0481 | 0.059 | – | 0.0527 | 0.0387 | 0.0537 | 0.0694 | – | 0.0516 | 0.0412 | 0.0575 | – | 0.0719 | 0.0611 | – | –
9 | V126T | 0.0871 | 0.11 | – | 0.0741 | 0.134 | 0.0552 | 0.0776 | – | 0.0491 | 0.126 | 0.0608 | 0.103 | 0.0491 | – | 0.0758 | – | – | 0.0863
10 | T192S | 0.0644 | 0.0772 | 0.0583 | 0.049 | – | – | – | 0.0601 | – | 0.114 | – | – | 0.0654 | 0.0849 | 0.132 | 0.0502 | – | 0.0804
11 | D149G | 0.104 | 0.0722 | 0.0571 | 0.0654 | 0.0807 | 0.0666 | – | 0.0643 | 0.0618 | 0.087 | 0.0721 | 0.0481 | 0.0617 | 0.0825 | 0.0708 | 0.053 | 0.0667 | 0.066
12 | P228F | 0.0824 | 0.0699 | – | – | – | – | – | – | 0.0567 | – | 0.0674 | 0.0603 | 0.0554 | 0.108 | – | 0.0638 | – | –
13 | K66S | – | 0.0655 | 0.0652 | 0.076 | 0.0962 | 0.0603 | 0.0876 | 0.0724 | 0.0563 | 0.108 | 0.0816 | – | 0.0621 | 0.133 | 0.0665 | 0.0549 | 0.0702 | –
14 | G202C | 0.0678 | 0.0618 | – | – | 0.0885 | – | – | – | 0.0758 | 0.0793 | 0.062 | – | – | 0.0651 | 0.0487 | – | 0.0613 | 0.0608
